From publication PMC4336329 (PLoS ONE, 2015)
Hit rate of the full screen: of about 310,000 compounds, about 14,000 (4.5%) showed an effect of 50% or more. Effects have a minus sign here. Some of the results follow.

target: human ether-à-go-go-related gene (hERG) potassium channel (human, UniProt Q12809); assay: primary screen, population patch clamp on CHO cells stably expressing hERG
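Also: peak tail current of the secondary pulse compared with the same well before compound.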

Chain of human ether-à-go-go-related gene (hERG) potassium channel (Q12809 whole entry, looked up): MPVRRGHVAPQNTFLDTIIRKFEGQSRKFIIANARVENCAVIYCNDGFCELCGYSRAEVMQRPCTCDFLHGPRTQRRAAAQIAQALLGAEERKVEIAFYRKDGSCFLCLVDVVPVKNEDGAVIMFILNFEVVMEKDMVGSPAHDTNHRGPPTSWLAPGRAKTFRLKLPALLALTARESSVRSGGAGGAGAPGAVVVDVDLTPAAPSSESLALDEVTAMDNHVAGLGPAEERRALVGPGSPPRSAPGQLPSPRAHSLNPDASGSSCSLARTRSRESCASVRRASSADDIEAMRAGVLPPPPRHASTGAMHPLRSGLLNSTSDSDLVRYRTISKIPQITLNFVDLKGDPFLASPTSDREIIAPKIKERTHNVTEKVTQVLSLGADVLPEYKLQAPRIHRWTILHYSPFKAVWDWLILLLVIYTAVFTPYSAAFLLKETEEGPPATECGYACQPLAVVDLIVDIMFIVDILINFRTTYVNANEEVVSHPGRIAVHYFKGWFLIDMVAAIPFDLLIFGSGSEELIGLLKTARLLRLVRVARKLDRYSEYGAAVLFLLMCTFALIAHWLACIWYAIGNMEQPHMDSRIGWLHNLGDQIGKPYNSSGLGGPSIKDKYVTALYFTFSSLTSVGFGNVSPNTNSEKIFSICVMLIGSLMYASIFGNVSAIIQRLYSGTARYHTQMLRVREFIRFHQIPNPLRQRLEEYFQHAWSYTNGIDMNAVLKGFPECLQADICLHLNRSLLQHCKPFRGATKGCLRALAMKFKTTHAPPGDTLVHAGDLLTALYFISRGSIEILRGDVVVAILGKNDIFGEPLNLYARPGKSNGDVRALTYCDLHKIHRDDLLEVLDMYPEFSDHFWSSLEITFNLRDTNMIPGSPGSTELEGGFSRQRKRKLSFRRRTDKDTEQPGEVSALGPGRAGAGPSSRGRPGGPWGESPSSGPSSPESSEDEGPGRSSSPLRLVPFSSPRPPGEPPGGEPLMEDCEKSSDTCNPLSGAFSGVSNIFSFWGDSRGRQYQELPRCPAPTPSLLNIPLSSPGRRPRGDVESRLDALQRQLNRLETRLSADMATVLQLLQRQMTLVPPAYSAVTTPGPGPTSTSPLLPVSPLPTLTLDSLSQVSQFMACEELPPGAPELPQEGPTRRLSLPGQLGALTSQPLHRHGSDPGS

Row | Structure (SMILES) | hERG current change (%, negative = inhibition) at 10uM [%]
1 | O=C(COc1ccc(Br)cc1Br)NC(=S)N1CCCc2ccccc21 | -2.7
2 | Cc1ccc(S(=O)(=O)NCC(=O)N(CC(=O)NCC2CCCO2)c2cccc(F)c2)cc1 (centres unmarked) | 1.45
3 | O=C(CCN1CCOCC1)Nc1cccc(Br)c1 | -3.24
4 | CCN(C1CCCCC1)S(=O)(=O)CCNC(=O)c1ccc2c(c1)OCO2 | 11.3
5 | O=C(Nc1cccc2c1CCCC2)c1ccccc1F | 17.9
6 | COc1ncnc2c1oc1nc(CC(C)C)c3c(c12)CC(C)(C)OC3 | -26.7
7 | COC(=O)c1[nH]c2ccccc2c1Sc1ccccc1 | 11.9
8 | CC(=O)Nc1ccc(NC(=O)c2ccc(C)c(S(=O)(=O)Nc3cccc(C)c3)c2)cc1 | 17.5
9 | COc1cccc(C(=O)N2CCn3c2nc2ccccc23)c1 | -33.4
10 | O=C(NC(=S)Nc1ccccc1N1CCOCC1)c1ccccc1F | 3.59
11 | CCOc1cc(C)c(S(=O)(=O)N2CCCCC2)cc1C | 27
12 | CSc1ccc(CN2CCC(n3nccc3NC(=O)C3CCOC3)CC2)cc1 (centres unmarked) | -67.8
13 | COc1cccc(-c2noc(C3CCCN(C(=O)c4ccc(F)cc4F)C3)n2)c1 (centres unmarked) | -35.9
14 | COc1cc(C(CCN2CCCCC2)c2c(OC)cc(OC)c3c(-c4ccccc4)cc(=O)oc23)cc(OC)c1OC (centres unmarked) | -67
15 | Cn1c(SCC(=O)NC2CC2)nnc1-c1ccccc1 | 4.67
16 | O=C(NCc1cccc(F)c1)C1CCN(C(=O)c2sccc2-n2cccc2)CC1 | -18
17 | O=C(NCCN1CCOCC1)c1cccn2c(=O)c3c4c(sc3nc12)CCCC4 | -25.5
18 | CC(=O)c1c(C)[nH]c(C(=O)N(CCc2ccccc2)Cc2ccccc2)c1C | -18.1
19 | CC(=O)Nc1ccc(S(=O)(=O)N(C)C2CCN(C)CC2)cc1 | 18.1
20 | CN1CC(C(=O)Nc2ccc(F)c(Cl)c2)CC1=O (centres unmarked) | 12.1
21 | OC1(c2cccs2)CN(c2ccc(Br)cc2)C2=[N+]1CCCS2.[Br-] (centres unmarked) | -72.1
22 | COC(=O)c1ccc(OC(=O)/C=C/c2ccco2)cc1 | 14.6
23 | Cc1ccc(-c2nc(SCC(=O)NCC3CCCO3)c(-c3ccccc3)[nH]2)cc1 (centres unmarked) | 7

Row | Structure (SMILES) | hERG current change (%, negative = inhibition) at 10uM [%]
24 | O=C1c2oc3ccccc3c(=O)c2C(c2cccnc2)N1Cc1ccco1 (centres unmarked) | -13.5
25 | O=C(CN1CCN(c2ccccc2)CC1)N1CCN(c2ccccc2)CC1 | -41.5
26 | O=C(COc1ccccc1-c1ccccc1)NN=C1CCCC1 | -6.03
27 | O=C(CSCc1c(Cl)cccc1Cl)Nc1nccs1 | -19
28 | Cc1onc(-c2ccc(Cl)cc2)c1-c1ccnn1S(=O)(=O)c1cccc(C(F)(F)F)c1 | -8.84
29 | OCCN1CCN(c2ncnc3c2sc2nc(N4CCOCC4)c4c(c23)CCC4)CC1 | -22.1
30 | CCCCOCCCNC(=O)/C=C/c1ccccc1Cl | -11.7
31 | Cn1c(Cn2c(=O)sc3ccccc32)nnc1SCC(=O)NCc1ccco1 | -12.6
32 | Cn1c(=O)[nH]c(=O)c2c1nc(NCCc1ccccc1)n2CC(O)COc1ccccc1 (centres unmarked) | 5.02
33 | NC(=O)NC(c1ccccc1)c1ccccc1 | -15.6
34 | CN(C)c1ccc(/C=N\NC(=O)CC#N)cc1 | 13.3
35 | COc1cccc(/C=N/NC(=O)CNC(=O)c2cccs2)c1O | 9.92
36 | NC(=O)C1(NC(=O)[C@@H]2CC3(CC(c4cccc(NC(=O)c5cc([N+](=O)[O-])cc([N+](=O)[O-])c5)c4)=NO3)CN2C(=O)c2ccccc2)CC1 (some centres unmarked) | 10.6
37 | Br.CCc1nnc2n1N=C(c1ccccc1)CS2 | 11.5
38 | CCOC(=O)C1CCN(C(=O)c2ccc(CNS(=O)(=O)c3ccc(C)cc3)cc2)CC1 | -31.4
39 | O=c1c2ccccc2nc(SCc2cccc(F)c2)n1-c1cccc(S(=O)(=O)N2CCCC2)c1 | 6.92
40 | CC(C)(C)c1ccc(C(=O)Nc2nnc(SCC(=O)NCC3CCCO3)s2)cc1 (centres unmarked) | 16.6
41 | O=[N+]([O-])c1cccc(CP(=O)(c2ccccc2)c2ccccc2)c1 | 4.45
42 | C/C(=N/NC(=O)CNC(=O)c1ccncc1)c1ccco1 | -2.36
43 | Cc1nn(C)c(C)c1CN(C)C(=O)C1(C)CC1(Br)Br (centres unmarked) | 3.92
44 | CC(C)c1ccc(N2C(=O)CC(Sc3ncccn3)C2=O)cc1 (centres unmarked) | 15.3
45 | CC(=O)N1CCN(c2ccc(NC(=O)COc3ccc(Cl)cc3Cl)cc2)CC1 | -12.9
46 | CCN(C(=O)c1coc(=O)c(Br)c1)c1ccc2c(c1)OCO2 | -1.7

Row | Structure (SMILES) | hERG current change (%, negative = inhibition) at 10uM [%]
47 | COc1ccc([C@H]2CC(=O)C=C(c3cc(Cl)cc(Cl)c3)C2)cc1 | 9.18
48 | O=C(NCCCCc1ccccc1)c1ccccc1F | 7.63
49 | Cn1c(=O)oc2cc(S(=O)(=O)NCCC(=O)N3CCN(c4ccccc4F)CC3)ccc21 | -17
50 | CC(C)(C)NC(=O)CN(C(=O)C1(C)CC(=O)N=C2C=CC=CN21)C1CCCC1 (centres unmarked) | 6.36
51 | COc1ccc(S(=O)(=O)Cc2ccc(C(=O)O)o2)cc1 | 21.8
52 | Cc1ccc(N(Cc2cc(=O)[nH]c3ccccc23)C(=O)CCl)cc1 | -1.45
53 | COc1ccc(NC2CS(=O)(=O)CC2NCc2ccco2)cc1 (centres unmarked) | 5.46
54 | Cc1cc([N+](=O)[O-])ccc1NC1CCCC1 | -29.3
55 | O=C(NNC(=S)NCc1ccco1)c1ccc(S(=O)(=O)N2CCOCC2)cc1 | 19.1
56 | O=C(/C=C/c1ccccc1)Nc1ccc(Br)cn1 | 10.2
57 | NC(=O)CC(NC(=O)Cc1ccc(Cl)cc1)c1ccc(NC2CCCC2)c([N+](=O)[O-])c1 (centres unmarked) | 3.04
58 | C#CC(CC)(CC)NC(=O)Nc1ccc(OCC)cc1 | -2.63
59 | O=[N+]([O-])c1ccc(N2CCN(S(=O)(=O)Cc3ccccc3)CC2)cc1N1CCOCC1 | 1.95
60 | COCC(=O)Nc1ccc(-c2cn3cccnc3n2)cc1 | 6.2
61 | CCNC(=S)N/N=C/c1ccc(OCC(=O)Nc2ccc(OC)cc2)c(OC)c1 | 0.987
62 | Cc1ccccc1C=O | 5.62
63 | O=C(NNC(=O)c1cccc2ccccc12)c1ccco1 | 19.6
64 | Cc1cccc(OCC(=O)NCC2CCCO2)c1C (centres unmarked) | -6.7
65 | CC(=O)Nc1cc(S(=O)(=O)Nc2ccccc2C)c(C)cc1C | -7.03
66 | CSc1ccc(/C=N/n2c(C3CCCCC3)n[nH]c2=S)cc1 | 21.9
67 | Cc1ccc2c(c1)N(CC(=O)c1cccc(Cl)c1)C(=O)C(C)O2 (centres unmarked) | -1.25
68 | COC(=O)CCN(C(=O)c1ccc(C)c([N+](=O)[O-])c1)c1ccccn1 | 19.3
69 | Cc1ccc(N(CC(=O)NCc2ccc3c(c2)OCO3)C(=O)CCC(=O)Nc2ccccn2)cc1 | 3.15

Row | Structure (SMILES) | hERG current change (%, negative = inhibition) at 10uM [%]
70 | CC(=O)Nc1ccc(S(=O)(=O)N2CCC(C(=O)NCc3ccco3)CC2)cc1 | 0.324
71 | O=C(Nc1ccccc1OC(F)F)C1CCCN1C(=O)c1cccs1 (centres unmarked) | 1.98
72 | CCOC(=O)CSc1nc2nc(C)cc(C)n2n1 | 0.674
73 | COC(=O)CSc1nc(NC#N)nc(NC(C)C)n1 | 20.8
74 | COc1ccc(-c2noc(C3CCCN(C(=O)c4cccc(F)c4)C3)n2)cc1 (centres unmarked) | -21.7
75 | CN(Cc1ccccc1)S(=O)(=O)c1cc2c3c(c1)CCN3C(=O)CC2 | 0.905
76 | COc1ccc(NC(=O)CCS(=O)(=O)c2cc3c(cc2Cl)NC(=O)CO3)cc1OC | 9.57
77 | COc1ccc(CN(C)CC(O)COC(c2ccc(OC)cc2)c2ccc(OC)cc2)cc1 (centres unmarked) | -77.2
78 | CCOC(=O)C1=C(Nc2ccc(Br)cc2)CC(C)(O)C(C(=O)OCC)C1c1ccccc1 (centres unmarked) | 10.5
79 | Cn1cnc([N+](=O)[O-])c1Sc1n[nH]c(N)n1 | 14.3
80 | CCCCC(C(=O)NC(=O)NCc1ccccc1)N1C(=O)c2ccccc2C1=O (centres unmarked) | 11
81 | CCOC(=O)Cc1nn(Cc2nc(-c3ccc(C)cc3)cs2)c(=O)c2ccccc12 | -3.17
82 | Cc1sc2ncn(CCC(=O)O)c(=O)c2c1C | 20.5
83 | CN(Cc1nccs1)C(=O)c1ccc(OC2CCN(Cc3ccccn3)CC2)cc1 | -11.5
84 | CC1CCN(S(=O)(=O)c2ccc(S(=O)(=O)N3CCCC3)cc2)CC1 | -9.29
85 | CC(C)(C)C(=O)N1NC(=Nc2ccccc2)SC1(C)C | 2.2
86 | Cc1ccc(Cc2cnc(NC(=O)C3=NCCN3)s2)cc1 | -0.641
87 | COc1ccc(-n2c(-c3ccccc3)nc3ccccc3c2=O)cc1 | -3.34
88 | Cc1cc(C)n2ncc(/C(N)=N/OC(=O)Nc3ccc(Cl)cc3)c2n1 | 11.5
89 | Nc1c2c(nc3ccccc13)CSCC2 | -57.3
